Source: the supplement of paper PMC10441789
This is one part of the list. Antibody binding of pooled human sera (four to six donors per pool; dilution not stated) to peptides of the Trypanosoma cruzi antigen TSSA on microarrays. Quantile-normalised fluorescence in arbitrary units, mean of duplicate arrays; higher = more binding. No active / inactive call. The uninfected pools are read here as the healthy donors of the same country. The strongest signals lie near the top of the scale (about 60,000).

Assays:
Experiment in all cases: antibody binding signal (normalised fluorescence) (arbitrary fluorescence units); higher = stronger serum antibody binding to peptide
[1] = system: pooled sera of chronic Chagas disease patients, Argentina
Experimental: (§1)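 Microarray of 15-residue peptides over residues 30-55 of Trypanosoma cruzi TSSAII, each with 1 to 10 substitutions at naturally variable positions, probed with one serum pool per country.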

[2] = system: pooled sera of chronic Chagas disease patients, Bolivia
Experimental: as §1

[3] = system: pooled sera of chronic Chagas disease patients, Brazil
Experimental: as §1

[4] = system: pooled sera of chronic Chagas disease patients, Colombia
Experimental: as §1

[5] = system: pooled sera of chronic Chagas disease patients, Mexico
Experimental: as §1

[6] = system: pooled sera of chronic Chagas disease patients, USA
Experimental: as §1

[7] = system: pooled sera of uninfected people, Argentina
Experimental: as §1

[8] = system: pooled sera of uninfected people, Bolivia
Experimental: as §1

[9] = system: pooled sera of uninfected people, Brazil
Experimental: as §1

[10] = system: pooled sera of uninfected people, Mexico
Experimental: as §1

[11] = system: pooled sera of uninfected people, USA
Experimental: as §1

| Sequence | antibody binding signal [1] | antibody binding signal [2] | antibody binding signal [3] | antibody binding signal [4] | antibody binding signal [5] | antibody binding signal [6] | antibody binding signal [7] | antibody binding signal [8] | antibody binding signal [9] | antibody binding signal [10] | antibody binding signal [11] |
| --- | --- | --- | --- | --- | --- | --- | --- | --- | --- | --- | --- |
| SGTDNKAAAGGAPSP | 292 | 319 | 45200 | 4000 | 434 | 689 | 182 | 744 | 1620 | 184 | 356 |
| GKENKPAAGETPSPP | 5820 | 1650 | 22700 | 6760 | 9300 | 14600 | 905 | 428 | 172 | 350 | 327 |
| TDNKTAAGGAPSPSG | 286 | 273 | 425 | 4900 | 484 | 419 | 327 | 259 | 521 | 412 | 222 |
| STPPSGKDNKTATGG | 42300 | 4970 | 9460 | 1380 | 35500 | 3440 | 337 | 519 | 145 | 114 | 242 |
| PPSGTDNKAAAGETP | 26300 | 39400 | 47300 | 1130 | 607 | 5490 | 522 | 679 | 1390 | 239 | 227 |
| TDNKTATGGAPSPPG | 515 | 429 | 489 | 555 | 320 | 653 | 312 | 349 | 362 | 199 | 162 |
| GKEKKTATGETPSPS | 2190 | 433 | 542 | 1760 | 3100 | 6250 | 218 | 127 | 93.1 | 135 | 764 |
| PSGKDNKAAAGGAPS | 3400 | 445 | 3930 | 7560 | 7190 | 3910 | 270 | 166 | 106 | 81.8 | 111 |
| SGKDKKTATGGTPSQ | 851 | 684 | 428 | 1420 | 962 | 1660 | 211 | 96.9 | 113 | 135 | 119 |
| GKENKTATGGAPSQS | 2790 | 810 | 9450 | 5210 | 6140 | 15500 | 415 | 113 | 113 | 132 | 148 |
| TPPSGTENKTATGEA | 42100 | 38100 | 44400 | 169 | 1510 | 18200 | 1730 | 221 | 326 | 217 | 143 |
| GKENKPATGEAPSPP | 48900 | 33000 | 47500 | 16500 | 16900 | 44700 | 1510 | 775 | 252 | 329 | 152 |
| ENKPAAGGTPSPPGA | 828 | 2480 | 1210 | 1660 | 364 | 596 | 227 | 412 | 1130 | 168 | 264 |
| SGKDNKAATGGAPSQ | 791 | 230 | 1860 | 1140 | 1030 | 1380 | 259 | 193 | 139 | 86 | 108 |
| KEKKPAAGGTPSQSG | 218 | 229 | 177 | 1160 | 170 | 369 | 134 | 100 | 626 | 79.4 | 319 |
| KDKKTATGETPSQPG | 414 | 683 | 19600 | 288 | 192 | 4860 | 129 | 149 | 169 | 149 | 123 |
| PPSGKDNKPATGEAP | 47500 | 48200 | 47800 | 387 | 16500 | 45300 | 1100 | 1120 | 404 | 358 | 287 |
| KENKAAAGGAPSQSG | 156 | 258 | 312 | 775 | 173 | 263 | 246 | 92.5 | 102 | 83.2 | 115 |
| KDNKPATGGTPSQPG | 325 | 209 | 11600 | 563 | 260 | 461 | 500 | 421 | 382 | 388 | 128 |
| TPPSGTDNKAATGET | 37500 | 31300 | 43100 | 885 | 7510 | 9130 | 467 | 502 | 560 | 211 | 147 |
| PSGKEKKPATGETPS | 26500 | 8790 | 19100 | 4820 | 6310 | 18100 | 602 | 691 | 126 | 784 | 258 |
| GKENKTAAGETPSPP | 3540 | 817 | 8270 | 6640 | 6090 | 13700 | 491 | 210 | 126 | 214 | 394 |
| ENKAAAGGAPSQSGA | 418 | 1300 | 1990 | 3820 | 433 | 643 | 311 | 218 | 255 | 160 | 329 |
| SGKDNKPAAGGAPSQ | 714 | 281 | 6370 | 1710 | 1040 | 1260 | 331 | 347 | 176 | 191 | 142 |
| TPPSGKEKKAATGGA | 10300 | 217 | 758 | 1670 | 6100 | 1340 | 327 | 423 | 99 | 80.6 | 244 |
| TPPSGKDKKTAAGET | 4370 | 848 | 1390 | 532 | 38800 | 1220 | 231 | 478 | 128 | 138 | 140 |
| TDKKPAAGEAPSPSG | 428 | 444 | 12600 | 268 | 183 | 14200 | 113 | 299 | 157 | 119 | 94.8 |
